Experimental data: paper PMC4336329 (PLoS ONE, 2015)
About 2,200 (0.71%) of roughly 310,000 compounds showed an effect of 50% or more. The effect is printed as a negative number. This is one part of the list.

The compounds below were run against human ether-à-go-go-related gene (hERG) potassium channel (human, UniProt Q12809) (assay: primary screen, population patch clamp on CHO cells stably expressing hERG).
Sequence of human ether-à-go-go-related gene (hERG) potassium channel (Q12809 whole entry, looked up): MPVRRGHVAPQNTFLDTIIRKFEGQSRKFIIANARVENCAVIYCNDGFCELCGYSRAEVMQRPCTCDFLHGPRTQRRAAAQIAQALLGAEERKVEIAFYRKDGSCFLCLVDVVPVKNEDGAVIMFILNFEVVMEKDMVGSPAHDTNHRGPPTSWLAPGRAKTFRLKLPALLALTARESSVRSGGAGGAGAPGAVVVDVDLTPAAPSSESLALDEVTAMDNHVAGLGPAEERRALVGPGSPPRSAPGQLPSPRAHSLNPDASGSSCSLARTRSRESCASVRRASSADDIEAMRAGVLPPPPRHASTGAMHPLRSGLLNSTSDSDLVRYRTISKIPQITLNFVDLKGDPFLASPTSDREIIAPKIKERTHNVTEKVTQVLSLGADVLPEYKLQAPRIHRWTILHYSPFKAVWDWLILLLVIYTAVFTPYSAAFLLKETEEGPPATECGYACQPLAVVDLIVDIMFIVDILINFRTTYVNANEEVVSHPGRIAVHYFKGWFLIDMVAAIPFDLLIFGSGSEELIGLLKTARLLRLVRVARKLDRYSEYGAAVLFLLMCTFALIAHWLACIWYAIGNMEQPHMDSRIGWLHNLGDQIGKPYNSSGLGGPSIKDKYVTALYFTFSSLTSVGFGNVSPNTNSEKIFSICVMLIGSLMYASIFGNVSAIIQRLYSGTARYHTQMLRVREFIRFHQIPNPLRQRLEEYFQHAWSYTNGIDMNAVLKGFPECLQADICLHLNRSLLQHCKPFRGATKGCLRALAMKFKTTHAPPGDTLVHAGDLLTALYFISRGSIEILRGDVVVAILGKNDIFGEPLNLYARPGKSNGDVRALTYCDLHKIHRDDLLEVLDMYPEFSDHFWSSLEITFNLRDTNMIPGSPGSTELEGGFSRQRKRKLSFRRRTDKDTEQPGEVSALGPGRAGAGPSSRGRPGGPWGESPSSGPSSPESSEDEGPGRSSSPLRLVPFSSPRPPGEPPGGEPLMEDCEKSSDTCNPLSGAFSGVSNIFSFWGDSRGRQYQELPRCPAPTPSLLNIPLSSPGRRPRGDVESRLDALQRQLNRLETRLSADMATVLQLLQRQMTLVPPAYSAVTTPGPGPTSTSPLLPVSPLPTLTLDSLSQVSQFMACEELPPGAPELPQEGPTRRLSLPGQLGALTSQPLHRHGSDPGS

SMILES | hERG current change (%, negative = inhibition) at 1uM
COc1ccc(N(C)C(=O)Cc2c(C(=O)O)[nH]c3ccccc23)c(OC)c1 | 10.9%
O=C(CSc1ccc(Cl)cc1)Nc1ccc(NC(=O)c2ccco2)cc1 | 6.86%
COc1cccc(C(=O)Nc2ccc3c(C)cc(=O)oc3c2)c1 | 15.5%
COCCNC(=O)c1cccc(OC2CCN(Cc3cccc(SC)c3)CC2)c1 | 4.6%
Cn1c(NNC(=O)c2c(F)cccc2F)cc(=O)n(C)c1=O | -4.74%
COc1ccccc1N1CCN(Cc2ccccc2Cl)CC1 | -0.135%
Oc1ccc2ccccc2c1C=Nc1ccccc1Br | 11.4%
Cc1[nH]nc2c1C(CC(C)C)C(C#N)=C(N)O2 (centres unmarked) | 16.2%
O=C1N=C([O-])CN1/N=C/c1ccc(-c2ccc([N+](=O)[O-])cc2)o1.[Na+] | 5.23%
O=C1C(=O)N(c2ccccn2)C(c2ccc(Br)cc2)/C1=C(/O)c1ccc(Br)cc1 (centres unmarked) | 6.76%
CC(O)CNC(=O)C1CCN(Cc2ccc(OCc3ccccc3)cc2)CC1.O=C(O)C(=O)O (centres unmarked) | -10.4%
O=C(OCc1nc2ccccc2s1)c1ccco1 | 2.24%
COCCNC(=O)c1onc(CSc2cccc(Cl)c2)c1C(=O)O | 11.7%
Cc1ccc2c(c1)C(c1ccccc1)N(C(=O)c1c(F)cccc1Cl)CC(=O)N2 (centres unmarked) | 10.4%
CCC(C)[C@H](NC(=O)C1CCN(C(=O)[C@H](Cc2ccccc2)NC(=O)OC(C)(C)C)CC1)C(=O)O (some centres unmarked) | 5.8%
Clc1ccc(-c2ccnc(Oc3cc(Cl)ccc3Cl)n2)cc1 | 14.7%
COc1ccc(NC(=O)CN2C(=O)C(C)Oc3ccccc32)cc1 (centres unmarked) | 4.53%
NC(=O)CCS(=O)(=O)CCN1CCCCC1 | 15.9%
Cc1ccc(S(=O)(=O)/N=C2/C=C(C3C(=O)CC(C)(C)CC3=O)C(=O)c3ccccc32)cc1 | 3.31%
O=c1c2ccccc2cnn1-c1ccc(Cl)cc1 | 7.98%
CC(C)(C)c1ccc2c(c1)OC(C(=O)N/N=C/c1ccc([N+](=O)[O-])o1)CO2 (centres unmarked) | 2.74%
CC(=O)O[C@H]1CC(C)(C)C(=C=C/C(C)=C/C=C/C(C)=C/C=C/C=C(C)/C=C/C=C(\C)C(=O)C[C@@]23O[C@]2(C)C[C@@H](O)CC3(C)C)[C@](C)(O)C1 | 14.8%

SMILES | hERG current change (%, negative = inhibition) at 1uM
C=CCNC(=O)c1onc(CSc2cccc(OC)c2)c1C(=O)O | 18.7%
COc1ccc(NC(=O)CSc2nnc(NC(C)=O)s2)c([N+](=O)[O-])c1 | 12.9%
N#CC1=C(N)Oc2cc(N)ccc2C1c1cccc(F)c1 (centres unmarked) | 0.989%
O=C(CSc1nc2ccccc2o1)Nc1ccc(N2CCOCC2)c(Cl)c1 | 4.7%
CC1CN(C(=O)c2ccccc2)OC(c2ccc3c(c2)OCO3)O1 (centres unmarked) | 7.74%
O=C(CN1C(=O)c2ccccc2C1=O)Nc1cc([N+](=O)[O-])ccc1O | 13.9%
O=C1C=C(c2cccc(CO)c2)C[C@@H](c2ccc3c(c2)OCO3)C1 | 5.51%
COc1cc(-c2nnc(COC(=O)CSc3cc(C)c4ccccc4n3)o2)cc(OC)c1OC | 14.9%
Cl.Cn1nnnc1SCCNCc1ccccc1OCc1ccccc1Cl | 5.48%
Cc1ccccc1N/N=C1\CCCNC1=O | 6.51%
COc1ccccc1OCCn1c(C(C)O)nc2ccccc21 (centres unmarked) | 11.3%
CCOc1ccc2[nH]c(=O)c(C(c3nnnn3C3CCCCC3)N3CCN(C)CC3)cc2c1 (centres unmarked) | -14.4%
CCOc1ccc2[nH]c(S(=O)(=O)CC)nc2c1Cl | 15.9%
CCOc1ccc(N(C(C)C(=O)NC2CCCCCC2)S(C)(=O)=O)cc1 (centres unmarked) | -2.91%
C=C(C)Cn1c(SCC(=O)N/N=C/c2ccccc2)nc2ccccc2c1=O | 11%
CC(=O)c1ccc(N(C(=O)c2ccco2)C(C(=O)NC2CCCC2)c2ccc(N3CCOCC3)cc2)cc1 (centres unmarked) | 13.1%
Cc1c(CCC(=O)N[C@@H](C)C(=O)O)c(=O)oc2cc3occ(-c4ccccc4)c3cc12 | -0.947%
Cc1ccc2[nH]c(=O)c(CN(CCCN3CCOCC3)C(=O)NC3CCCCC3)cc2c1 | -4.37%
Cc1cc([N+](=O)[O-])ccc1NC(=O)c1cncc(Br)c1 | 4%
COc1ccc(/C=C(/C#N)C(=O)Nc2cc(C)ccc2C)cc1C(=O)O | 3.45%
Cc1cc(NC(=O)c2ccc(C)o2)no1 | 14.8%
O=C(COC(=O)c1cccc([N+](=O)[O-])c1)Nc1ccc(Cl)cn1 | 9.13%
